From the supplement of paper PMC10126150
Values marked as one replicate rest on one cluster of the flow cell; about a third of the high ones do not repeat.

Test system: ATP
Assay: switch fluorescence ratio, 500 uM ATP over buffer (Cy3 cluster intensity, sum of 5 cycles each) (fold (ratio)); higher = stronger signal-on switching upon ATP binding; sequences stand for … in TCGTCGGCAGCGTCAGATGTGTATAAGAGACAGTTTTTTTTTTTTTTTTTTTTTTTTT…TC
Conditions: aptamer strand: ATP DNA aptamer (quencher-CACCTGGGGGAGTATTGCGGAGGAAGG + anchor), 100 nM annealed; ATP concentration: 500 uM; one replicate
Method in brief: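 Clusters with intensities outside 100-1000 RFU were excluded. The remaining Cy3-labelled switching-strand clusters on a modified Illumina MiSeq flow-cell had been annealed to 100 nM quencher-labelled ATP aptamer and imaged in selection buffer, then after 15 min with 500 uM ATP at 22 °C, for five cycles separated by NaOH stripping and re-annealing. The fluorescence ratio, averaged per switch-domain sequence, is each cluster's summed target-cycle Cy3 intensity over its summed buffer-cycle Cy3 intensity.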
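Also: ATP exposure 15 min at 22 °C before imaging.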

Sequence	switch fluorescence ratio
TCGACTATCA	1.03
GTTTTTGTAT	1.02
GACGGCGTTT	1.43
CTGCCCGGCC	1.09
TAGATCCCC	1.01
CTGCAAAA	1.36
ACACGGTTGT	1.01
GTGTGAGCCG	1.01
AGGCTGTCCG	0.987
TACGAGGAG	1.04
CCGAGGAAAT	1.19
TCATGGCTGG	0.991
AGAGTTCTCA	0.983
TCGGATGGCT	1.02
CGGTGCCTGC	1.03
TTGACGATGC	1.64
AGTTAATGTC	0.954
CAATATTTAG	0.957
CTAGTATCCC	1.01
TTACCCGGGT	1.06
TACTGGTC	1.02
GCCTCGTAAT	1.78
TAGTATCATC	0.965

Sequence	switch fluorescence ratio
CAATGAAGGC	0.963
GCCAATAAGT	0.988
GTCGGGTCCG	1.01
CTGGCGTATT	1.02
GCGAGGCGGA	1.03
CTGCCTGGGA	1.05
TTCTATGAGG	1
GACAGTGGG	0.997
TACTAATTAC	1.1
ATCCTTCTTA	1.02
CTGACTGGGA	1.04
AACGGATGTT	0.999
TGCTATAGGT	0.99
GCACTTCGTT	1
TCCATGCAAT	4.25
GAGATAAGTT	0.97
TTCAACTGAA	1.03
CGACAGGGGA	1.14
CGACACTCAA	1.25
TTCAGTCTGA	0.999
CCGGGCCCCA	1.03
TTTGGCCCCC	1.08
TGGATGGTTT	1.01

Sequence	switch fluorescence ratio
TTGTAAGCCT	1.08
CTGTTTTTCC	1.02
GCTTGTAAGT	1
GCTCCATCTT	1.06
AGCGTGTGTT	1.02
TAGTCCGATT	1.12
TGTTTTGGA	0.935
GGCGAAAGGT	0.983
GGACGCAGCC	1.5
GGTGGACTTT	0.974
AAGTGCGGCA	1.06
ATTATACTC	1.1
GGGAGATGCG	0.966
TGGGAAACAA	0.994
ATCGTATTAA	0.984
GATCTCAGGC	0.969
TCATTCCGTG	1.07
AACCCTGGGC	0.982
GATCTGTTGA	0.981
CCTGGACAA	1.46
TTTCGTGAAC	1.07
GAGCGTAGTT	0.979
TTACGCGGTA	1.13

Sequence	switch fluorescence ratio
ATCTTATACC	1.1
TGGCAAATGC	1.26
CGGCCCTAGA	1.02
TTCTACCTA	1.01
GAGCGTGGTT	1
ATTTGGGAG	0.976
TAGGATAGT	0.97
GGGCTTGCTG	0.993
GAAAGCCTGA	1.05
CGCAGCGCTT	1.05
GTTCGGCATG	1.03
ATTGCTATGT	0.958
GTCTAAGACC	0.998
GTTGTCGCG	0.986
TGGCTGGAAA	1.02
AATATAGTCA	1.02
TGAGAGCAAT	4.05
GCGTTTCCCT	1.02
TAGTCGAAGT	0.963
GACGACGCCG	1.07
TTACGTCTAT	1.08
GGGTTAACCG	0.985
ACTGTGACA	1.3

Sequence	switch fluorescence ratio
ATCATGTGTG	0.98
TTCTAATGTC	1.07
AAAATTCCAC	1.05
TTTTCGTTT	0.986
CGGCATCTGT	0.992
ACTCGCATTT	1.52
ACGTAGCTTG	1.11
CAGGGTAAAG	1.02
GCGACATTTG	1.01
TTAAGGCGG	1.01
TGGAAAAAGG	1.13
TAAGCCCTGC	0.973
TGCTCTGTTA	1.04
ATATTGTGAA	1.02
GCGCGTAGTA	0.998
ACTTTCTGTT	0.982
TAGATAC	1.44
ACCAACGCGT	1.05
GGCAGATCGC	0.963
CGGCGTTG	0.99
TTTCTAGTTA	0.989
TATTGGTATC	1.01
TCAATCCGAT	0.989

Sequence	switch fluorescence ratio
TTATAAGCGG	0.981
TGCTTGTCGC	1.05
CGTTTTACA	1.03
CATGCTAGTC	0.969
GTATTGTATA	0.979
CGATTTTCTA	1.03
CTGCGCCGGT	1.04
ATAAGTATTC	0.974
AGGAGCACTG	1.16
ATCCGCGTGG	1.01
TGCCTCTGCA	1.76
CCCTGTGAAT	0.99
AATCCCGAGC	1.06
CTCCGGTGTA	1.84
AGTTGCAATA	1.59
GGTGCGTACT	1.01
ACCATGCACG	1.1
GCGAAGCGCC	1.2
ATATCTTATC	0.937
TACTAATTGA	1.06
TTTAGATAA	0.963
CTGGGTTGA	1.04
GGAGGAAGTG	0.981

Sequence	switch fluorescence ratio
AGGTCCGCGT	1.1
CACTATAAAC	1.06
GGGGCAGTCG	1.01
TCTCTACAAC	1.14
ATGGTGAAGA	0.947
GCCTAGTG	1
ACTCAAGTAG	1.01
GGTTATAGCG	0.989
CTTGGAAAAT	1.04
TACTGACTGT	1.13
CTTCTCGGTC	1.01
AGATAAATGA	0.992
CGCTATGGAC	2.08
ATCCCTATAT	1.04
GGTGTGGGAG	1.04
ACCAAGGGAC	1.08
CTTTCGTATT	1.02
ATTATAAGCA	1.01
TATGCACAGT	1.05
TTACCTGAAG	1.11
